Results taken from a compilation of properties of binary mixtures (doi:10.1016/j.molliq.2020.112816).
Some of these densities may be calculated back from excess volumes.

Experiment: xn = mol fraction of the nth substance listed
Details: 101 kPa

NC=O + CCCC[n+]1ccn(C)c1.F[B-](F)(F)F
mass density [kg/m3]
Details	293.15 K	298.15 K	303.15 K	308.15 K	313.15 K	318.15 K
x2 = 0	–	1129.1	1125.4	1121	1116.7	1112
x2 = 0.0675	1153.4	1150.1	1146.9	1143	1139.2	1135.1
x2 = 0.135	1167.6	1164.6	1161.5	1157.8	1154.3	1150.6
x2 = 0.2054	1178.4	1175.4	1172.4	1169	–	1161.9
x2 = 0.2758	–	–	1180.6	–	1173.8	–
x2 = 0.3629	–	1190.9	1188	1184.7	–	1177.8
x2 = 0.4499	1198.9	1196.1	–	–	–	1183.3
x2 = 0.5095	–	1198.9	1196	1192.8	1189.6	1186.2
x2 = 0.569	–	1201	1198.2	1195.1	1191.8	–
x2 = 0.6639	1206	1203.3	1200.6	1197.4	1194.2	–
x2 = 0.7588	1207.1	–	1201.7	1198.5	1195.3	1192
x2 = 0.8107	1207.3	–	–	1198.6	1195.4	1192
x2 = 0.8626	1207.2	1204.4	–	1198.4	1195.1	–
x2 = 0.9313	1206.6	1203.8	–	–	1194.1	1190.4

CCCC[n+]1ccn(C)c1.F[B-](F)(F)F + NC=O
x1 = 1
Details	mass density [kg/m3]
293.15 K	1205.5
298.15 K	1202.6
303.15 K	1199.3
313.15 K	1192.2
